# The list shows a part of the results. Antibody binding of pooled human sera (four to six donors per pool; dilution not stated) to peptides of the Trypanosoma cruzi antigen TSSA on microarrays. Quantile-normalised fluorescence in arbitrary units, mean of duplicate arrays; higher = more binding. No active / inactive call. The uninfected pools are read here as the healthy donors of the same country. The strongest signals lie near the top of the scale (about 60,000).
# What was measured:
# Experiment in all cases: antibody binding signal (normalised fluorescence) (arbitrary fluorescence units); higher = stronger serum antibody binding to peptide
# [1] = tested on: pooled sera of chronic Chagas disease patients, Bolivia
# Procedure: (§1)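 Microarray of 15-residue peptides over residues 30-55 of Trypanosoma cruzi TSSAII, each with 1 to 10 substitutions at naturally variable positions, probed with one serum pool per country.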
# [2] = tested on: pooled sera of chronic Chagas disease patients, Brazil
# Procedure: as §1
# [3] = tested on: pooled sera of chronic Chagas disease patients, Colombia
# Procedure: as §1
# [4] = tested on: pooled sera of chronic Chagas disease patients, Mexico
# Procedure: as §1
# [5] = tested on: pooled sera of chronic Chagas disease patients, USA
# Procedure: as §1
# [6] = tested on: pooled sera of uninfected people, Argentina
# Procedure: as §1
# [7] = tested on: pooled sera of uninfected people, Bolivia
# Procedure: as §1
# [8] = tested on: pooled sera of uninfected people, Brazil
# Procedure: as §1
# [9] = tested on: pooled sera of uninfected people, Colombia
# Procedure: as §1
# [10] = tested on: pooled sera of uninfected people, Mexico
# Procedure: as §1
# [11] = tested on: pooled sera of uninfected people, USA
# Procedure: as §1
Sequence,antibody binding signal [1],antibody binding signal [2],antibody binding signal [3],antibody binding signal [4],antibody binding signal [5],antibody binding signal [6],antibody binding signal [7],antibody binding signal [8],antibody binding signal [9],antibody binding signal [10],antibody binding signal [11]
PPSGKDKKPAAGGTP,507,773,1410,35000,1180,223,418,666,252,79.7,119
GTDNKPAAGGAPSQP,2260,43800,2250,350,734,224,678,489,230,501,162
GTDNKTATGGAPSQP,2530,27500,796,949,604,330,623,1850,142,357,187
GTEKKPAAGEAPSPP,611,11000,1460,1610,13300,114,1060,1380,86.3,404,1060
PSGKEKKPAAGGTPS,513,9020,10900,10800,8070,367,228,368,197,81.6,178
SGTDNKTAAGEAPSQ,13000,41100,273,226,7030,119,691,1350,178,118,167
GKENKTAAGGAPSPP,277,2240,4750,1620,7200,369,108,673,122,165,124
KDKKAATGGTPSQPG,490,214,502,499,439,293,77.2,237,240,178,91.9
PSGTEKKPATGGAPS,3180,15700,5790,6700,7450,790,1220,331,395,298,662
SGKENKTATGGTPSP,1010,17500,5120,3460,19400,7090,1870,144,419,531,182
KPATGEAPSPSGASS,41700,46900,176,3290,44200,842,753,319,170,175,274
GKEKKTATGETPSQP,560,21100,3880,6660,7560,206,110,126,85.6,128,102
ENKTATGEAPSQSGA,28900,23500,180,229,21300,137,103,199,123,134,114
PSGTENKTAAGEAPS,24500,41800,2080,1990,12900,1200,501,316,423,318,597
KDKKTAAGEAPSPSG,193,219,250,194,3210,130,72.8,93.9,290,75,111
GKEKKPATGGTPSPP,502,2120,4750,8490,6000,208,119,216,166,122,267
NKAATGEAPSPSGAS,40900,35800,224,536,27300,458,769,573,348,224,908
NKAATGGTPSPPGAS,694,2090,340,302,287,628,1140,570,731,162,1820
SSTPPSGKENKTATG,15900,13200,902,5480,2780,2100,1100,177,663,419,454

Sequence,antibody binding signal [1],antibody binding signal [2],antibody binding signal [3],antibody binding signal [4],antibody binding signal [5],antibody binding signal [6],antibody binding signal [7],antibody binding signal [8],antibody binding signal [9],antibody binding signal [10],antibody binding signal [11]
SGTDNKPATGETPSP,34500,47000,1300,269,22500,251,738,328,260,1930,957
GKDKKAAAGETPSQP,406,17600,1170,898,1180,136,90.3,123,150,92.8,93.8
GTEKKTATGETPSPP,907,1590,1160,1970,8000,330,631,201,135,209,573
TEKKTAAGEAPSQSG,11400,4440,591,571,7480,151,331,239,1040,443,205
EKKTATGGTPSPPGA,1080,484,3830,690,1450,305,829,379,672,210,662
PSGTDKKTAAGETPS,747,3860,3710,1330,3020,216,694,412,1420,436,345
TDKKPATGGTPSQPG,579,4600,2960,760,779,404,616,965,284,445,123
NKTATGETPSQSGAS,4230,10500,193,314,5450,433,781,263,252,417,991
GTEKKPAAGGTPSPP,161,417,4490,1200,1280,141,979,2940,226,381,1630
EKKPAAGGAPSQPGA,307,5390,4900,383,550,282,765,494,134,171,815
TDKKAATGGAPSPSG,266,446,2100,1000,1820,328,712,150,718,123,132
TPPSGTEKKAAAGGA,5100,25400,3290,13000,2370,1580,297,825,156,206,291
DNKAAAGETPSPPGA,343,10700,254,265,900,139,308,176,122,330,411
PSGTDNKAAAGGTPS,3260,42200,2900,2060,1590,211,665,2720,467,336,267
KDKKAATGGTPSPPG,247,157,414,304,364,150,78.9,165,231,59.4,77.4
SGKDNKAAAGGTPSQ,284,1100,2050,1080,1700,163,237,347,581,100,114
GTEKKAATGGAPSPP,209,806,1890,1700,2450,451,1070,109,887,143,148
PPSGKDKKTATGETP,404,856,1060,15400,3620,364,377,113,255,87.3,129
SGTDKKTATGGTPSP,660,1340,8110,984,1980,355,169,245,856,225,163
